The campaign covered roughly 150,000 compounds. About 540 (0.36%) showed an effect of 50% or more. The list shows a part of the results.
These compounds were tested on Plasmodium falciparum (assay: Primary screen in NF54 nanoGlo assay, in single point, at 2uM, 72h; a lower Z score goes with more inhibition). Conditions: timepoint 72 hour.
Type: functional, Erythrocyte

Row | Structure (SMILES) | % Inhibition | Z score
1 | O=C1CN(c2ccc(NC(=O)c3coc(CC4CC4)n3)cn2)CCN1 | -11% | 1.27
2 | Cc1noc(C)c1C(=O)OCc1cc(Cl)c2c(c1)OCO2 | -14% | 2.27
3 | O=S(=O)(NCCN1CCOCC1)c1ccc(-c2cnc(C3CCC3)o2)s1 | -12% | 1.4
4 | CC(C)C(=O)N1CC2(CCCCC2)C[C@@H]1COCc1ccccc1 | -9% | 1.61
5 | CN1C(=O)C[C@H](C(=O)N2CC[C@H](c3ccccc3)[C@H](CO)C2)[C@H]1c1cccnc1 | 5% | -0.71
6 | COc1ccc(CNC(=O)c2ccc(-c3nc(CN4CCc5ccccc54)c(C)o3)cc2)cc1 | -12% | 1.58
7 | COc1ccc(CCNC(=O)c2cccc3c2C(=O)N(C2CCCCC2)C3)cc1OC | -9% | 1.17
8 | COc1ccc(NC(=O)N(C2CCCCC2)[C@@H](C)c2ccco2)c(OC)c1 | -10% | 1.64
9 | CCCNCc1cc(Cl)ccc1OC | 36% | -4.03
10 | CC[C@H]1C=CCN1C(=O)c1ccc(C(=O)N2CCOCC2)cc1 | -3% | 0.55
11 | Cc1ccc2[nH]nc(CNC(=O)[C@@H]3CCCCO3)c2c1 | -3% | 0.54
12 | COc1ccc(CNc2cc(C3CC(N)C3)nc(C3CC3)n2)c(OC)c1 (stereo unspecified) | 2% | -0.37
13 | COc1ccc([C@H](C)NCCc2cn(C)cn2)c(Cl)c1 | 0% | 0.09
14 | Cc1cc(CNC(=O)CCCN2CCCC2=O)n(C)n1 | -15% | 2.03
15 | C[C@@H]1CN(C(=O)c2cccnc2N(C)C)CC[C@@]1(O)C1CCOCC1 | -2% | 0.26
16 | COc1cc2c(cc1OC)CN(C(=O)c1cccc(S(=O)(=O)N[C@H]3CCS(=O)(=O)C3)c1)CC2 | -3% | 0.5
17 | NCC[C@H]1CN(C(=O)CCc2ccc(-c3ccccc3)cc2)CCO1 | 7% | -0.9
18 | O=C(O)[C@@H]1CN(C(=O)Nc2ccn(-c3ccc(Cl)cc3Cl)n2)CCO1 | -8% | 1.27
19 | Cc1ccc(CC(=O)Nc2ccccc2N2C(=O)N[C@@H](C)C2=O)cc1C | 8% | -1.02
20 | O=C1CC[C@H](NC(=O)Nc2cc(-c3ccccc3)ns2)CN1 | -16% | 1.58
21 | C[C@@H](Cc1nc(-c2ccnn2C)cs1)n1cc(Cl)cn1 | 1% | -0.07
22 | CCn1nc(CC(C)C)cc1C(=O)N1CCOC[C@@H]1CC(=O)NC1CCC1 | -6% | 0.62
23 | Cc1cccc(CNc2cc([C@H]3C[C@@H](N)C3)nc(N3CCCC3)n2)c1 | 32% | -1.33

Reference: ChEMBL document CHEMBL4888484, “Replenishing the malaria drug discovery pipeline: Screening and hit evaluation of the MMV Hit Generation Library 1 (HGL1) against asexual blood stage Plasmodium falciparum ,using a nano luciferase reporter read-out” (2022)
